# Data reported in the supplement of paper PMC8728848.
# The other results are listed elsewhere or left out.
# B1: CV-IIL (Chromobacterium violaceum) (protein)
# chain: AQQGVFTLPARINFGVTVLVNSAATQHVEIFVDNEPRAAFSGVGTGDNNLGTKVINSGSGNVRVQITANGRQSDLVSSQLVLANKLNLAVVGSEDGTDMDYNDSIVILNWPLG
# What was measured:
# Assay in all cases: glycan array binding signal (z-score within array); higher = stronger binding
# Settings in all cases: glycan notation: IUPAC condensed, linker removed
# [1] = target: Gal(a1-4)Gal(b1-4)Glc
# Procedure, shortened: (§1)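 The binding signal is a Z-score computed within each array. Data were drawn from 3228 arrays in the Consortium for Functional Glycomics database, restricted to those with a known protein sequence. Scores were averaged over arrays of the same protein sequence at different concentrations or buffers, and over linkers, and negative values can be taken as non-binding.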
# [2] = target: Gal(a1-4)Gal(b1-4)GlcNAc
# Procedure, shortened: as §1
# [3] = target: Gal(a1-4)GlcNAc
# Procedure, shortened: as §1
# [4] = target: Gal(a1-6)Glc
# Procedure, shortened: as §1
# [5] = target: Gal(b1-2)Gal
# Procedure, shortened: as §1
# [6] = target: Gal(b1-3)Gal
# Procedure, shortened: as §1
# [7] = target: Gal(b1-3)GalNAc
# Procedure, shortened: as §1
# [8] = target: Gal(b1-3)GalNAc(b1-3)Gal(a1-4)Gal(b1-4)Glc
# Procedure, shortened: as §1
# [9] = target: Gal(b1-3)GalNAc(b1-4)Gal(b1-4)Glc
# Procedure, shortened: as §1
# [10] = target: Gal(b1-3)GalNAc(b1-4)[Neu5Ac(a2-3)]Gal(b1-4)Glc
# Procedure, shortened: as §1
# [11] = target: Gal(b1-3)GlcNAc
# Procedure, shortened: as §1
# [12] = target: Gal(b1-3)GlcNAc(b1-3)Gal(b1-4)Glc
# Procedure, shortened: as §1
# [13] = target: Gal(b1-3)GlcNAc(b1-3)Gal(b1-4)GlcNAc
# Procedure, shortened: as §1
# [14] = target: Gal(b1-3)[Fuc(a1-4)]GlcNAc
# Procedure, shortened: as §1
# [15] = target: Gal(b1-3)[Fuc(a1-4)]GlcNAc(b1-3)Gal(b1-4)GlcNAc
# Procedure, shortened: as §1
# [16] = target: Gal(b1-3)[Fuc(a1-4)]GlcNAc(b1-3)Gal(b1-4)[Fuc(a1-3)]GlcNAc
# Procedure, shortened: as §1
# [17] = target: Gal(b1-3)[GlcNAc(b1-6)]GalNAc
# Procedure, shortened: as §1
# [18] = target: Gal(b1-3)[Neu5Ac(a2-6)]GalNAc
# Procedure, shortened: as §1
# [19] = target: Gal(b1-3)[Neu5Ac(a2-6)]GlcNAc(b1-6)Gal(b1-4)Glc
# Procedure, shortened: as §1
# [20] = target: Gal(b1-3)[Neu5Ac(b2-6)]GalNAc
# Procedure, shortened: as §1
# [21] = target: Gal(b1-4)GalNAc(a1-3)[Fuc(a1-2)]Gal(b1-4)GlcNAc
# Procedure, shortened: as §1
# [22] = target: Gal(b1-4)GalNAc(b1-3)[Fuc(a1-2)]Gal(b1-4)GlcNAc
# Procedure, shortened: as §1
# [23] = target: Gal(b1-4)Glc
# Procedure, shortened: as §1
# [24] = target: Gal(b1-4)Glc6S
# Procedure, shortened: as §1
# [25] = target: Gal(b1-4)GlcNAc
# Procedure, shortened: as §1
# [26] = target: Gal(b1-4)GlcNAc(b1-2)Man(a1-3)[Gal(b1-4)GlcNAc(b1-2)Man(a1-6)]Man(b1-4)GlcNAc(b1-4)GlcNAc
# Procedure, shortened: as §1
# [27] = target: Gal(b1-4)GlcNAc(b1-3)Gal(b1-4)Glc
# Procedure, shortened: as §1
# [28] = target: Gal(b1-4)GlcNAc(b1-3)Gal(b1-4)GlcNAc
# Procedure, shortened: as §1
# [29] = target: Gal(b1-4)GlcNAc(b1-3)Gal(b1-4)GlcNAc(b1-3)Gal(b1-4)GlcNAc
# Procedure, shortened: as §1
# [30] = target: Gal(b1-4)GlcNAc(b1-3)Gal(b1-4)[Fuc(a1-3)]GlcNAc(b1-3)Gal(b1-4)[Fuc(a1-3)]GlcNAc
# Procedure, shortened: as §1
# [31] = target: Gal(b1-4)GlcNAc(b1-3)GalNAc
# Procedure, shortened: as §1
# [32] = target: Gal(b1-4)GlcNAc(b1-3)[Gal(b1-4)GlcNAc(b1-6)]GalNAc
# Procedure, shortened: as §1
# [33] = target: Gal(b1-4)GlcNAc(b1-6)Gal(b1-4)GlcNAc(b1-6)GalNAc
# Procedure, shortened: as §1
# [34] = target: Gal(b1-4)GlcNAc(b1-6)GalNAc
# Procedure, shortened: as §1
# [35] = target: Gal(b1-4)GlcNAc(b1-6)[Gal(b1-3)]GalNAc
# Procedure, shortened: as §1
# [36] = target: Gal3S(b1-3)GalNAc
# Procedure, shortened: as §1
# [37] = target: Gal3S(b1-3)GlcNAc
# Procedure, shortened: as §1
# [38] = target: Gal3S(b1-3)[Fuc(a1-4)]GlcNAc
# Procedure, shortened: as §1
# [39] = target: Gal3S(b1-4)Glc
# Procedure, shortened: as §1
# [40] = target: Gal3S(b1-4)Glc6S
# Procedure, shortened: as §1
# [41] = target: Gal3S(b1-4)GlcNAc
# Procedure, shortened: as §1
# [42] = target: Gal3S(b1-4)GlcNAc6S
# Procedure, shortened: as §1
# [43] = target: Gal3S6S(b1-4)GlcNAc
# Procedure, shortened: as §1
# [44] = target: Gal3S6S(b1-4)GlcNAc6S
# Procedure, shortened: as §1
# [45] = target: Gal4S(b1-4)GlcNAc
# Procedure, shortened: as §1
binder,measurement,setting,value
B1,glycan array binding signal (z-score),[1],-0.499
same,glycan array binding signal (z-score),[2],-0.498
same,glycan array binding signal (z-score),[3],-0.501
same,glycan array binding signal (z-score),[4],-0.498
same,glycan array binding signal (z-score),[5],-0.5
same,glycan array binding signal (z-score),[6],-0.5
same,glycan array binding signal (z-score),[7],-0.5
same,glycan array binding signal (z-score),[8],-0.501
same,glycan array binding signal (z-score),[9],-0.501
same,glycan array binding signal (z-score),[10],-0.472
same,glycan array binding signal (z-score),[11],-0.501
same,glycan array binding signal (z-score),[12],-0.383
same,glycan array binding signal (z-score),[13],-0.499
same,glycan array binding signal (z-score),[14],2.27
same,glycan array binding signal (z-score),[15],0.055
same,glycan array binding signal (z-score),[16],1.75
same,glycan array binding signal (z-score),[17],-0.501
same,glycan array binding signal (z-score),[18],-0.496
same,glycan array binding signal (z-score),[19],-0.498
same,glycan array binding signal (z-score),[20],-0.502
same,glycan array binding signal (z-score),[21],-0.427
same,glycan array binding signal (z-score),[22],-0.46
same,glycan array binding signal (z-score),[23],-0.498
same,glycan array binding signal (z-score),[24],-0.5
same,glycan array binding signal (z-score),[25],-0.501
same,glycan array binding signal (z-score),[26],-0.477
same,glycan array binding signal (z-score),[27],-0.467
same,glycan array binding signal (z-score),[28],-0.502
same,glycan array binding signal (z-score),[29],-0.479
same,glycan array binding signal (z-score),[30],-0.136
same,glycan array binding signal (z-score),[31],-0.502
same,glycan array binding signal (z-score),[32],-0.502
same,glycan array binding signal (z-score),[33],-0.502
same,glycan array binding signal (z-score),[34],-0.501
same,glycan array binding signal (z-score),[35],-0.502
same,glycan array binding signal (z-score),[36],-0.502
same,glycan array binding signal (z-score),[37],-0.5
same,glycan array binding signal (z-score),[38],2.18
same,glycan array binding signal (z-score),[39],-0.495
same,glycan array binding signal (z-score),[40],-0.5
same,glycan array binding signal (z-score),[41],-0.501
same,glycan array binding signal (z-score),[42],-0.499
same,glycan array binding signal (z-score),[43],-0.491
same,glycan array binding signal (z-score),[44],-0.501
same,glycan array binding signal (z-score),[45],-0.501
